PubChem BioAssay AID1240 (Sanford-Burnham Center for Chemical Genomics, 2008)
About 800 (1.6%) of roughly 50,000 compounds showed an effect of 50% or more. This is one part of the list.

What follows are compounds tested against Bcl-2-like protein 10 (Homo sapiens) (UniProt Q9HD36) (assay: Phenotype converters, Bcl-B/TR3 peptide binding displacement, primary biochemical FP (AID 1240;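 also: 0% = Bcl-B with tracer peptide and DMSO and 100% = tracer peptide lacking Bcl-B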)). Conditions: GST-Bcl-B / FITC-TR3 peptide fluorescence polarization; stronger effect = higher value; compound at 3.75 mg/L.
Chain of UniProt Q9HD36 (Q9HD36 whole entry, looked up): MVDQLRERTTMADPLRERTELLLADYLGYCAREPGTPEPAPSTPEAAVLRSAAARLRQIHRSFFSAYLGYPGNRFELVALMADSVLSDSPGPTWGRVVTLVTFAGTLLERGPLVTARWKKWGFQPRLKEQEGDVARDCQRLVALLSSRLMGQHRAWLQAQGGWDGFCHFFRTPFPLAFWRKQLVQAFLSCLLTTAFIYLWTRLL

SMILES | displacement
O=C(C(C(=O)N1CCOCC1)C12CC3CC(CC(C3)C1)C2)N1CCOCC1 | 3.3%
CC(C)OC(=O)c1c(-c2ccc(C(C)C)cc2)csc1N | 3.8%
COC(=O)c1ccccc1NC(=O)c1cc([N+](=O)[O-])ccc1Cl | 10.5%
O=C(Nc1ccc(Br)cc1)C1C(c2ccccc2)=C1c1ccccc1 | -6.7%
O=C(Nc1ccc(I)cc1)N1CCOCC1 | 0.8%
COc1ccc(CCC(=O)Nc2cc(Cl)cc(Cl)c2)cc1 | 0.3%
CS(=O)(=O)N(CC(=O)Nc1ccccc1C(F)(F)F)c1cccc(Cl)c1 | 3.9%
O=[N+]([O-])C1=CC(=[N+]([O-])[O-])C=CC12N(Cc1ccccc1)C1=CC=CC=CC1=[N+]2Cc1ccccc1 (configuration not stated) | 15%
O=C(COc1cccc(Cl)c1)NCc1ccccc1 | -4.4%
O=C(Nc1cccc(Cl)c1)c1ccccc1Br | 6.5%
CCc1cc2c(C)cc(=O)oc2cc1OC(C)=O | 10.1%
O=C(CSC1=NCCS1)Nc1cccc(C(F)(F)F)c1 | -2.1%
CCOC(=O)c1c(NC(=O)c2ccc(OC)cc2)sc(C(=O)Nc2cc(C(F)(F)F)ccc2Cl)c1C | 7.6%
CC(=O)Oc1ccc(C(=O)Nc2cccc(-c3nnc(-c4ccccc4)o3)c2)cc1 | 8.4%
Cn1cccc1CC(=O)N/N=C/c1ccccn1 | -20.8%
CCOC(=O)N1CCN(c2cc(N3CCOCC3)c(F)cc2[N+](=O)[O-])CC1 | -4.2%
O=C1CC(NCc2ccco2)C(=O)N1CCc1ccccc1 (configuration not stated) | 7.3%
CCOC(=O)C1(C(=O)O)NC(=O)CC1c1ccccc1 (configuration not stated) | 7.8%
NC1=NC(=O)/C(=C/c2ccc(OC(=O)c3ccc(Cl)c(Cl)c3)cc2)S1 | -11.9%
O=C(Nc1nc2ccc(Br)cc2s1)c1ccc(S(=O)(=O)N2CCCCC2)cc1 | -6.7%
N/C(=N/N=C\c1cccc(O)c1)c1ccccn1 | -14.6%
COC(=O)CNS(=O)(=O)c1ccc(OC)cc1 | 12%
O=C(NCCN1CCOCC1)c1c(Cl)cccc1Cl | -10%

SMILES | displacement
Cc1cc(C)nc(NS(=O)(=O)c2ccc(Nc3nc(-c4sc(N)nc4C)cs3)cc2)n1 | -3.8%
CCCCN(CCCC)CCNC(=O)C(=O)NCc1ccccc1 | -12.6%
Cc1cccc(C(=O)NNC(=O)C2CCCO2)c1 (configuration not stated) | -9.2%
C=CCOc1ccc2c(C(F)(F)F)cc(=O)oc2c1 | 1.4%
c1ccc(-n2nnnc2SCc2nc3ccccc3[nH]2)cc1 | 3.8%
Cc1ccc(S(=O)(=O)Nc2ccccc2-c2nc3ccccc3c(=O)[nH]2)cc1 | 1.4%
O=C(Nc1ccc(NC(=O)c2ccc(Br)cc2)cc1)c1ccc(Cl)cc1 | 0.1%
CC(C)N(Cc1ccccc1)C(=O)/C=C/c1cccc([N+](=O)[O-])c1 | 15.1%
O=C(Nc1ccccc1)N1CCc2ccccc2C1 | -0.6%
CC1=C(C(=O)OC(C)C)C(c2cc3c(cc2[N+](=O)[O-])OCO3)C2=C(CC(C)(C)CC2=O)N1 (configuration not stated) | -3.3%
COc1cccc(CN2CCN(Cc3cccc([N+](=O)[O-])c3)CC2)c1 | -6.6%
O=C(N=Nc1c(O)n(CN2CCCCC2)c2ccccc12)c1ccncc1 | -5.2%
COc1ccccc1NC(=O)c1oc2ccc(C)cc2c1C | -10.5%
O/N=C/c1ccc(OCc2ccc(Cl)c(Cl)c2)cc1 | -8.8%
O=C(CSCc1ccccc1)Nc1ccccc1Br | 13.8%
O=c1/c(=C/c2ccco2)sc2nnc(-c3ccccc3)n12 | 26.9%
O=C(Nc1ccccc1OC(F)(F)F)c1sc2ccccc2c1Cl | -0.6%
O=C(Cc1ccccc1)N1N=CCC1(O)c1ccccc1 (configuration not stated) | 2.1%
COc1ccc(NC(=O)C2CCCN(CCCc3ccccc3)C2)cc1OCC(C)C (configuration not stated) | -1.7%
COc1cccc(C2Nc3ccccc3NC3=C2C(=O)CC(c2ccccc2Cl)C3)c1OC (configuration not stated) | 18.2%
CCCCN(C(C)=O)c1ccc(C(=O)O)cc1 | 12%
CCCOc1ccc(C(=O)N2CCc3ccccc32)cc1 | -8.5%
CCc1ccc(N2CC(C(=O)Nc3ccccc3F)CC2=O)cc1 (configuration not stated) | 5.1%

SMILES | displacement
CC(=O)Oc1ccc(-c2cccc(C(=O)NCc3ccccc3)c2)cc1 | 3.8%
CCC(Oc1ccccc1)C(=O)Nc1ccc(S(N)(=O)=O)cc1 (configuration not stated) | -0.9%
CCC1(c2ccccc2)NC(=S)N(c2ccc(C)cc2)N1 (configuration not stated) | -15.2%
O=C(c1ccc(-c2ccccc2)cc1)N1CCN(Cc2ccccn2)CC1 | -23.9%
CCCCCCn1cnn2c(=O)cc(C)nc12 | 11.1%
COc1ccccc1N1C(=O)NC(=O)/C(=C/c2ccc(Br)s2)C1=O | 10.6%
CCNC(=O)NC1C(NC(=O)NCC)N(C)C(=O)N1C (configuration not stated) | 7.1%
O=P(Cc1ccccn1)(c1ccccc1)c1ccccc1 | -4.7%
CCCCNCCCOc1cc(Cl)ccc1Cl | 6.5%
CC1=NN(C(=N)c2ccccc2)C(O)(c2ccccc2)C1 (configuration not stated) | -2.8%
CCCN1C(=O)c2ccccc2NC1c1ccc(Cl)cc1 (configuration not stated) | 11.4%
Cc1sc(NC(=O)CN2C(=O)c3ccccc3C2=O)nc1-c1ccccc1 | 6.1%
CC1(C)CC(NCC(=O)OC2CCCCC2)CC(C)(C)N1 | 12.1%
COc1cc(NC(=O)c2ccc3c(c2)C(=O)N(c2ccccc2OC)C3=O)c(C(=O)O)cc1OC | -0.6%
Cc1ccc(N2NC(=O)/C(=C\c3cccc([N+](=O)[O-])c3)C2=O)cc1 | 0.6%
Cc1onc(-c2c(F)cccc2Cl)c1C(=O)N1CCN(c2ccccn2)CC1 | -9.8%
O=C(O)C1C2CCC(O2)C1C(=O)NCc1cccs1 (configuration not stated) | 6.3%
COc1ccc(C(=O)Nc2cc(C)nc3ccccc23)cc1OC | -5.8%
COC(=O)C1=CNC=C(C(=O)OC)C1c1cccc(OC)c1 | 1.2%
COc1cc(/C=N/N2C(=O)CSC2=S)ccc1O | -22.5%
Cc1cccc(OC(=O)C#Cc2ccccc2)c1 | 4.5%
O=C(Nc1ccccc1C(=O)NCc1ccccc1)c1ccccc1F | 0.8%
CCOCCOC(=O)c1ccc(NC(=O)COc2c(C)cccc2C)cc1 | 13.5%

SMILES | displacement
CCC1=NN(C(=O)c2ccc([N+](=O)[O-])cc2)C(O)(c2ccncc2)C1 (configuration not stated) | 15.8%
CCSc1nnc(NC(=O)/C=C/c2ccc(Cl)cc2)s1 | 12.4%
COc1ccc(Cc2noc(-c3ccccc3Cl)n2)cc1 | -5.3%
CCCCOc1cccc(C(=O)Nc2ccc(C(=O)OCCC)cc2)c1 | -11.3%
CCOc1cc(C(=O)Nc2cccc(C)c2C)cc(OCC)c1OCC | 0.4%
O=C(/C=C/c1cccc([N+](=O)[O-])c1)NCCc1ccccc1 | -5.7%
Cc1ccc(N(CC(=O)N2CCOCC2)S(C)(=O)=O)cc1Cl | -6.4%
O=C(Nc1cccc(Br)c1)c1ccc(N2C(=O)c3ccccc3C2=O)cc1 | 13.2%
O=C(O)c1cc(C(=O)O)cc(S(=O)(=O)Nc2ccc(Cl)c([N+](=O)[O-])c2)c1 | 3.2%
COc1ccc(C2CC(=O)C3=C(C2)NC(C)=C(C(=O)OCCc2ccccc2)C3c2ccncc2)cc1 (configuration not stated) | -6.9%
O=C(Nc1ccc([N+](=O)[O-])c(NC(=O)c2cccs2)c1)c1cccs1 | -4.2%
CCCc1cc(C(=O)OC)c(NC(=O)c2c(F)cccc2F)s1 | 1%
CCOC(=O)c1c(C)nn2c1NC(c1ccc(Cl)cc1)CC2C(F)(F)F (configuration not stated) | 9%
O=C(NC1CCCC1)c1ccc(CN(c2ccccn2)S(=O)(=O)c2ccccc2)cc1 | 2.1%
COc1ccc(S(=O)(=O)N2CCN(C(=O)c3ccccc3F)CC2)cc1 | -13.5%
CC(C(=O)c1ccc(Cl)cc1)[n+]1ccccc1 (configuration not stated) | 2.8%
COc1ccccc1OC(=O)Nc1ccc(Cl)cc1 | 0.6%
O=C(Nc1ncc([N+](=O)[O-])s1)c1ccc2c(c1)C(=O)N(CC1CCCO1)C2=O (configuration not stated) | -4.5%
O=C(CSc1nc2ccccc2[nH]1)Nc1ccc(/C=C/c2ccccc2)cc1 | 3%
COc1ccc(/C=C/C(=O)Nc2ccc(F)cc2)cc1OC | -6.9%
O=C(NN1C(=O)/C(=C/c2cccc(O)c2)SC1=S)c1ccc([N+](=O)[O-])cc1 | 0.8%
CC1(C)CC(NC(=O)CC#N)CC(C)(C)N1 | 5.6%
COc1ccc(N(CC(=O)Nc2cccc(Br)c2)S(=O)(=O)c2ccccc2)cc1Cl | 12.6%

SMILES | displacement
CCCC12C(=O)C(C)(C(c3ccccc3)=C1c1ccccc1)C1C(=O)N(c3cccc(Cl)c3)C(=O)C12 (configuration not stated) | 15%
O=C(NNC(=O)c1ccco1)C(=O)N1CCCC1 | 1.4%
CCOc1ccc(N2C(=O)NC(=O)/C(=C\c3ccc(OC)cc3C)C2=O)cc1 | -25.9%
COc1ccc2nc(SCC(=O)Nc3ccc4c(c3)C(=O)c3ccccc3C4=O)[nH]c2c1 | 8.9%
COC(=O)c1ccccc1NC(=O)C1CN(S(=O)(=O)c2ccccc2)CCN1S(=O)(=O)c1ccccc1 (configuration not stated) | 0%
COc1ccc(/C=C2\SC(=O)N(CCC(=O)Nc3ccccc3C)C2=O)cc1OC | 79.4%
COc1ccc(/C=C/C(=O)NCCSCc2ccc(Cl)cc2)cc1 | -6.3%
Nc1nc(O)c(C2=c3cc(Cl)ccc3=NC2=O)s1 | -7.1%
O=C(c1ccc(Cl)cc1Cl)N1CCN(c2ccc(Cl)cc2)CC1 | -0.9%
O=[N+]([O-])c1ccc(-n2nncc2-c2ccccc2)cc1 | -4%
CCCC(=O)Nc1nnc(-c2cccc(OCC)c2)s1 | 1.3%
COc1ccc(CC(=O)NNC(=O)c2ccccc2Cl)cc1OC | -14.1%
COc1ccc(NC(=O)NS(=O)(=O)c2ccc(C)cc2)c(OC)c1 | -1.8%
O=C(Nc1ccccc1C(=O)NCCCO)c1ccccc1 | 14.6%
COc1ccc(/C=C(\NC(=O)c2ccc(C)cc2)C(=O)NCCCN2CCOCC2)cc1OC | 8.8%
CCOc1ccccc1NC(=O)c1c(N)sc2c1CCCCC2 | -15.6%
O=C(CN(c1ccccc1)S(=O)(=O)c1ccccc1[N+](=O)[O-])Nc1ccccc1Br | -1.2%
Cc1cccc(N2C(=O)c3ccccc3C2=O)n1 | 15.4%
COc1ccc(C2NC(=O)NC(C)=C2C(=O)Nc2cc(Cl)ccc2C)cc1OC (configuration not stated) | 12%
COc1ccc(Br)cc1C(=O)Nc1ccc2oc(-c3ccccc3)nc2c1 | -2.9%
